Measured values as given in the supplement of paper PMC4166925.
± gives the standard deviation of the averaged measurements. Over roughly 33,000 sequences, “E-score (dimensionless, -0.5 to 0.5)” has its median near -0.046; the highest 2% begin near 0.36. This is one part of the list.

tested on: T1, SpTbr T-box DNA-binding domain (GST fusion); assay: PBM E-score of 8-mer (E-score (dimensionless, -0.5 to 0.5)); Tbr is Tbrain of the sea star Patiria miniata (Pm) or the sea urchin Strongylocentrotus purpuratus (Sp); higher = stronger binding preference; most listed sequences are background and not binding sites; conditions: the construct has about 5 more residues each side
T1 sequence: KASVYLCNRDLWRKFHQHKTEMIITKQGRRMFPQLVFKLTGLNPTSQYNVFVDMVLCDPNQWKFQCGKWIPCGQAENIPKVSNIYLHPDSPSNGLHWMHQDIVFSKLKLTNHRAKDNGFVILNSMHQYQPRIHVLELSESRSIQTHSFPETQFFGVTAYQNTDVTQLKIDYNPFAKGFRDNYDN
Experimental: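 Universal protein-binding microarray (Agilent AMADID 016060, 60-bp probes with a 35-bp variable region) incubated with 200 nM GST-fused Strongylocentrotus purpuratus Tbr T-box DNA-binding domain (residues 362-554) in PBS pH 7.5. Scored for every ungapped 8-mer (given with its reverse complement) as E-score (range -0.5 to 0.5; >0.45 counts as bound) and Z-score of median probe intensity. Two replicate arrays (datasets 1 and 2).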
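Further: protein at 200 nM in PBS on universal double-stranded arrays.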

Sequence	PBM E-score of 8-mer
CTCGAGAC	-0.0685 ± 0.051
ATCAACTC	0.162 ± 0.063
CTATCGGC	0.0551 ± 0.08
CGTTGTGC	0.151 ± 0.022
AAGGCGAC	0.245 ± 0.017
ACGGCAGT	-0.173 ± 0.031
CAGCTGAC	0.0252 ± 0.062
CACACTCG	0.426 ± 0.019
CACGTCGC	0.258 ± 0.021
GCAGGAGC	-0.139 ± 0.0006
ATCCACAA	-0.0482 ± 0.053
GAGATATA	-0.166 ± 0.0067
ATTCCTTC	-0.213 ± 0.035
ACGAATAC	-0.0938 ± 0.04
AGTTGTGA	0.407 ± 0.0049
AATACGGC	-0.0576 ± 0.085
GGAAACAA	-0.0459 ± 0.05
CCAAACAA	-0.0308 ± 0.027
ACACCATG	0.364 ± 0.0073
CCGCCCGC	0.0723 ± 0.021
ATTATTGC	-0.195 ± 0.15
CCTTGTAA	0.0056 ± 0.066

Sequence	PBM E-score of 8-mer
AAGCCTCG	0.0181 ± 0.0013
GATCAGAC	-0.265 ± 0.028
TAGATTAA	-0.128 ± 0.053
CCCCTGTA	-0.0431 ± 0.026
CAATCAAA	-0.117 ± 0.077
AACAATCC	0.00562 ± 0.014
ACACTAAT	0.176 ± 0.046
CGGCTGTC	0.006 ± 0.019
CCCGGCTC	-0.317 ± 0.0087
CCTTCGAA	0.022 ± 0.024
CGAGCGTC	-0.0797 ± 0.014
AGACTCTA	-0.232 ± 0.0089
CCCAACAC	0.343 ± 0.013
ACTATAAT	-0.221 ± 0.037
CACTATGA	0.105 ± 0.0092
AGGAAATC	-0.184 ± 0.037
ACGTTGCG	0.209 ± 0.06
CCACAAAA	0.163 ± 0.067
CCTGTAAC	0.175 ± 0.055
GCCATAGC	-0.08917 ± 0.00081
AAATCATC	0.138 ± 0.11
AGACTCTG	-0.182 ± 0.024

Sequence	PBM E-score of 8-mer
AAAAATGT	0.0827 ± 0.086
AATGATCC	-0.164 ± 0.052
AGAACAAG	0.0269 ± 0.081
AAGTAGCT	-0.102 ± 0.019
GTTGTATA	-0.209 ± 0.066
AAGAGGCA	-0.157 ± 0.044
CCAAGCAA	0.0499 ± 0.028
CACGTGCC	0.285 ± 0.051
AGTTAGAG	-0.215 ± 0.038
CTGTTTCC	-0.0707 ± 0.063
GTTAGTGA	0.195 ± 0.032
AGAATTGA	0.0245 ± 0.021
ACGTGTGC	0.253 ± 0.017
AAAGTCGG	-0.174 ± 0.071
TTATCCAA	0.0187 ± 0.056
GACGGAAC	-0.196 ± 0.05
AGCAGTGG	-0.177 ± 0.025
AGGTCTGA	-0.252 ± 0.012
CTGCGACC	0.159 ± 0.038
AACGCCGA	0.0424 ± 0.05
AGCGGAAC	-0.168 ± 0.02
GGACAATA	-0.222 ± 0.074

Sequence	PBM E-score of 8-mer
ATAGCGGA	0.0361 ± 0.014
CTAGCTTA	-0.0478 ± 0.054
ACTCGAGG	0.0677 ± 0.028
AGAAAAAT	-0.076 ± 0.086
CCTTGCCG	-0.0413 ± 0.053
GACAGCGC	0.0549 ± 0.0097
CTTTCATC	-0.107 ± 0.065
TCATACGA	0.0298 ± 0.072
CGCGGCCC	-0.0783 ± 0.14
GAGCTGAC	0.103 ± 0.0062
CGGAAGAC	-0.014 ± 0.058
CTTTAGCA	0.147 ± 0.041
GCCTTAAA	-0.175 ± 0.031
ACATGTGG	-0.00104 ± 0.016
AAGTTGGA	-0.131 ± 0.024
CGTTAGGA	-0.0398 ± 0.0099
CGGTTTAA	-0.116 ± 0.0054
CATCAGAC	-0.104 ± 0.011
CACTATTA	0.157 ± 0.0049
ACGCCCAT	0.0516 ± 0.054
